# Results reported in publication PMC9911399, “Two distinct binding modes provide the RNA-binding protein RbFox with extraordinary sequence specificity”.
# Substitutions are numbered along the chain they refer to; changes in the protein carry UniProt numbers. This is one part of the list.
# T1: RBFOX1 RRM (Homo sapiens, UniProt Q9NWB1 109-208)
# T1 sequence: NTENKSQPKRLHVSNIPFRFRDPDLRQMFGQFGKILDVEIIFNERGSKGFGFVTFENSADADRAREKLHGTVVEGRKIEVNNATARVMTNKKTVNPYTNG
# B1: ACAGGGA (DNA:RNA)
# RNA: GGGAGACCGGAAUUCAGAUUGUCCACAGGGAUUAAAUCCCGUCGUAGCCACCA
# DNA 1: CAATCTGAATTCCGGTCTCCC
# DNA 2: TGGTGGCTACGACGGGATT
# B2: UUACUUG (DNA:RNA)
# RNA: B1 RNA with A25U, C26U, G28C, G29U, G30U, A31G
# DNA 1: CAATCTGAATTCCGGTCTCCC
# DNA 2: TGGTGGCTACGACGGGATT
# B3: CUGUCCG (DNA:RNA)
# RNA: GGGAGACCGGAAUUCAGAUUGUCCCUGUCCGUUAAAUCCCGUCGUAGCCACCA
# DNA 1: CAATCTGAATTCCGGTCTCCC
# DNA 2: TGGTGGCTACGACGGGATT
# B4: UGAAAGA (DNA:RNA)
# RNA: B1 RNA with A25U, C26G, G28A, G29A
# DNA 1: CAATCTGAATTCCGGTCTCCC
# DNA 2: TGGTGGCTACGACGGGATT
# B5: UGGUCGA (DNA:RNA)
# RNA: B3 RNA with C25U, U26G, C30G, G31A
# DNA 1: CAATCTGAATTCCGGTCTCCC
# DNA 2: TGGTGGCTACGACGGGATT
# B6: CUUAGGU (DNA:RNA)
# RNA: B1 RNA with A25C, C26U, A27U, G28A, A31U
# DNA 1: CAATCTGAATTCCGGTCTCCC
# DNA 2: TGGTGGCTACGACGGGATT
# B7: CCGCUGU (DNA:RNA)
# RNA: B1 RNA with A25C, A27G, G28C, G29U, A31U
# DNA 1: CAATCTGAATTCCGGTCTCCC
# DNA 2: TGGTGGCTACGACGGGATT
# B8: AAGUCAG (DNA:RNA)
# RNA: B3 RNA with C25A, U26A, C30A
# DNA 1: CAATCTGAATTCCGGTCTCCC
# DNA 2: TGGTGGCTACGACGGGATT
# B9: GUCACAG (DNA:RNA)
# RNA: B3 RNA with C25G, G27C, U28A, C30A
# DNA 1: CAATCTGAATTCCGGTCTCCC
# DNA 2: TGGTGGCTACGACGGGATT
# B10: AAGAAGG (DNA:RNA)
# RNA: B1 RNA with C26A, A27G, G28A, G29A, A31G
# DNA 1: CAATCTGAATTCCGGTCTCCC
# DNA 2: TGGTGGCTACGACGGGATT
# B11: CAUGGUA (DNA:RNA)
# RNA: B1 RNA with A25C, C26A, A27U, G30U
# DNA 1: CAATCTGAATTCCGGTCTCCC
# DNA 2: TGGTGGCTACGACGGGATT
# B12: UGUUCCG (DNA:RNA)
# RNA: B3 RNA with C25U, U26G, G27U
# DNA 1: CAATCTGAATTCCGGTCTCCC
# DNA 2: TGGTGGCTACGACGGGATT
# B13: GGCUCUA (DNA:RNA)
# RNA: B3 RNA with C25G, U26G, G27C, C30U, G31A
# DNA 1: CAATCTGAATTCCGGTCTCCC
# DNA 2: TGGTGGCTACGACGGGATT
# B14: AUACUGC (DNA:RNA)
# RNA: B1 RNA with C26U, G28C, G29U, A31C
# DNA 1: CAATCTGAATTCCGGTCTCCC
# DNA 2: TGGTGGCTACGACGGGATT
# B15: UCGAGCA (DNA:RNA)
# RNA: B1 RNA with A25U, A27G, G28A, G30C
# DNA 1: CAATCTGAATTCCGGTCTCCC
# DNA 2: TGGTGGCTACGACGGGATT
# B16: AAAGAAA (DNA:RNA)
# RNA: B1 RNA with C26A, G29A, G30A
# DNA 1: CAATCTGAATTCCGGTCTCCC
# DNA 2: TGGTGGCTACGACGGGATT
# B17: GAUAUUU (DNA:RNA)
# RNA: GGGAGACCGGAAUUCAGAUUGUCCGAUAUUUUUAAAUCCCGUCGUAGCCACCA
# DNA 1: CAATCTGAATTCCGGTCTCCC
# DNA 2: TGGTGGCTACGACGGGATT
# B18: GAGGGAU (DNA:RNA)
# RNA: B17 RNA with U27G, A28G, U29G, U30A
# DNA 1: CAATCTGAATTCCGGTCTCCC
# DNA 2: TGGTGGCTACGACGGGATT
# B19: CUAACCU (DNA:RNA)
# RNA: B3 RNA with G27A, U28A, G31U
# DNA 1: CAATCTGAATTCCGGTCTCCC
# DNA 2: TGGTGGCTACGACGGGATT
# B20: GCCUAUA (DNA:RNA)
# RNA: B1 RNA with A25G, A27C, G28U, G29A, G30U
# DNA 1: CAATCTGAATTCCGGTCTCCC
# DNA 2: TGGTGGCTACGACGGGATT
# Target: T1, RBFOX1 RRM
# Experiment: EMSA; HiTS-Eq, 1 nM pool, 10 min; buffer printed only for the single-RNA assays: 10 mM Tris pH 7.5, 150 mM NaCl, 3.4 mM EDTA, 0.001% NP-40, 30 C
# Details: tags: His6 N-terminal (pET28a); label: 5' 32P
# Procedure, shortened: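 These values rest on relative association constants, computed from read-count changes of each RNA species versus the control reaction and normalised to the cognate motif. Reads came from free RNA recovered by 8% native PAGE after purified RbFox RRM (wild type or mutant) at increasing concentrations was equilibrated for 10 min in 50 µL with 1 nM of a 5′-radiolabelled pool with 7 randomized nucleotides and DNA-annealed flanks.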
row,Binder,binding signal
1,B1,0.00503 KA relative to UGCAUGU
2,B2,0.0182 KA relative to UGCAUGU
3,B3,0.0164 KA relative to UGCAUGU
4,B4,0.0171 KA relative to UGCAUGU
5,B5,0.0247 KA relative to UGCAUGU
6,B6,0.0134 KA relative to UGCAUGU
7,B7,0.0129 KA relative to UGCAUGU
8,B8,0.00914 KA relative to UGCAUGU
9,B9,0.00981 KA relative to UGCAUGU
10,B10,0.00952 KA relative to UGCAUGU
11,B11,0.0123 KA relative to UGCAUGU
12,B12,0.0186 KA relative to UGCAUGU
13,B13,0.00407 KA relative to UGCAUGU
14,B14,0.007 KA relative to UGCAUGU
15,B15,0.0163 KA relative to UGCAUGU
16,B16,0.000936 KA relative to UGCAUGU
17,B17,0.00677 KA relative to UGCAUGU
18,B18,0.0272 KA relative to UGCAUGU
19,B19,0.00307 KA relative to UGCAUGU
20,B20,0.00531 KA relative to UGCAUGU
